“And” between values parts separate entries of the source, which are not always exact repeats. Identical values can stand only once.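 Five concentrations, 48 hours, 96-well plates. GI50 = concentration required for 50% inhibition of growth. TGI: total growth inhibition.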

The assay deals with NCI-H322M lung. Description: NCI-60 cell line screen, 48 h.
Turning to `[N-]=[N+]=N[C@H]1C[C@@H](CO)O[C@H]1n1cnc2c(N)ncnc21`, the TGI is > 100 µM.

For `O=C(/C=C/c1cc2ccccc2o1)N1CCN(c2ccccn2)CC1`, the TGI was > 100 µM.

For the compound `Cn1c(=O)c2c(nc(Cc3ccccc3)n2CC(=O)O)n(C)c1=O`, the TGI was > 100 µM.

In the case of `CN1CCOC(c2ccccc2)O1` (centres undefined), the TGI was > 100 µM.

Take `O=C(N[C@@H](c1ccc(Cl)c(Cl)c1)C1CNC1)c1ccc2cnccc2c1`: the GI50 was 1.29 µM and the TGI turned out to be 14 µM.

Regarding `O=C1C=CC(=O)c2cc3cc(CBr)ccc3cc21`, the GI50 is 24.1 µM and the TGI was found to be 52.6 µM.

`O=C(/C=C/c1cccc2ccccc12)c1ccccc1Cl`: the TGI was 31.7 µM.

`COc1cc2c(c(OC)c1OC)-c1ccc(SC)c(=O)cc1C(NC=O)CC2` (centres undefined) showed a TGI of 24.8 µM.

As for `COc1cc(NCc2ccc3nc(N)nc(N)c3c2C)cc(OC)c1OC` (tested in a mixture with another compound), the GI50 is 0.0198 µM and 0.0973 µM; the TGI turned out to be 51 µM.

Turning to `Cn1ccc(C(=O)NCCN(CCNC(=O)c2ccn(C)c(=O)c2O)CCNC(=O)c2cccc(=O)n2O)c(O)c1=O`, the TGI was > 100 µM.

For `CC12CP(=O)(c3ccccc3)CC1C2(Cl)Cl` (centres undefined), the TGI is > 100 µM.

For `CC[C@H]1[C@@H]2C=C[C@@H]3[C@H]4C/C=C\C(=O)NCCC[C@@H]5NC(=O)/C(=C(O)/C=C/[C@@H]4C[C@@H]3[C@H]2C[C@H]1C)C5=O`, the GI50 was 1.98 µM and the TGI was determined as 4.96 µM.

Take `CN(CC(=O)O)c1ncc2c(n1)CCCC2`: the TGI was > 100 µM.

Regarding `CCOC(=O)C12OC(CCC1=O)C(C(=O)OC)=C2C(=O)OC` (centres undefined), the TGI is > 10 µM.

With `CCC(C)OC(=O)/C(Br)=C1/OC(=O)c2ccccc2-c2ccccc21` (centres undefined), the TGI was > 100 µM.

For the compound `O=c1c(/C=C/c2c(O)ccc3ccccc23)nnc2sc(-c3cccc(Br)c3)nn12`, the TGI was > 100 µM.

Take `N#Cc1c(N)nc2n[nH]c(N)c2c1-c1ccc(Cl)cc1`: the TGI was > 85.9 µM.

With `CN=C1CC2c3cc(OC)c(OC)cc3CCN2C2=C1C(=O)CC(C)(C)C2` (centres undefined), the TGI is > 100 µM.

For the compound `CC(CO)(CO)N1C(=O)C2C3C=CC(C3)C2C1=O` (centres undefined), the TGI is > 100 µM.

Consider `CC(=O)Oc1ccc2c(C)cc(=O)oc2c1OC(C)=O`, for which the TGI was found to be 81.2 µM.

As for `O=C(CC1(O)C(=O)N(Cc2ccccc2)c2ccc(F)cc21)c1ccc(C(=O)NCC2CCC3(CC2)OOC2(CCCCC2)OO3)cc1` (centres undefined), the GI50 is 5.16 µM and the TGI is > 100 µM.

On to `Fc1cc(-c2cc(-c3ccccc3)no2)c(Cl)cc1Cl`, for which the TGI was > 55.9 µM.

On to `S=c1sc2c(Cl)nc(Cl)nc2n1-c1ccccc1`, for which the TGI was > 100 µM.

For the compound `CC(=O)c1[nH]c(NCc2ccccc2)c(C(=S)Nc2ccccc2)c1N`, the TGI was > 100 µM.

With `COc1ccc(-[n+]2nc(S(=O)(=O)O)c(/C=C/c3ccc(N(C)C)cc3)cc2C#N)cc1`, the TGI is > 100 µM.

Turning to `O=c1ccn([C@H]2CSC[C@@H](CO)C2)c(=O)[nH]1`, the TGI is > 100 µM.

As for `CC(=O)OC12C=CC(=O)N1c1ccccc1C(=O)O2` (centres undefined), the TGI was > 100 µM.

Regarding `C/C=C(/C)C(=O)O[C@@H]1CCN2CC[C@H](COC(=O)/C(=C/C)CO)C12` (some centres undefined), the TGI was > 100 µM.

Turning to `C[C@H](CCC(=O)O)[C@H]1CC[C@H]2[C@@H]3CC[C@@H]4C[C@H](O)CC[C@]4(C)[C@H]3C[C@H](O)[C@]12C`, the TGI was > 100 µM.

For `CC1CCC(C(C)C)C(OC(=O)NCn2cc(-c3ccccc3)nn2)C1` (centres undefined), the TGI was > 100 µM.

Take `Oc1cccnc1[Se]`: the TGI was > 100 µM.

Regarding `Cc1ncc(C(=O)Nc2ccc(CN3CCN(C)CC3)c(C(F)(F)F)c2)cc1C#Cc1cnc(N)c2ccncc12`, the GI50 was 1.03 µM and the TGI was 3.5 µM.

As to `CSc1ncnc2c1ncn2CCC(=O)OC(C)(C)C`, the TGI is > 100 µM.

As for `CCOc1ccc(NC(=O)CC#N)cc1`, the TGI is > 100 µM.

As to `Cc1[nH]c2ccccc2c1C(=O)/C=C/c1ccccc1O`, the TGI was > 100 µM.

For `COc1cc2c(cc1OCCCNC(=O)c1cccc3c(=O)c4ccccc4[nH]c13)N=C[C@@H]1CCCN1C2=O`, the GI50 was 0.294 µM and the TGI was determined as 10.6 µM.

For `O=c1cc(-c2cccc3ccccc23)[nH]c2ncccc12`, the GI50 is 0.0282 µM and the TGI was > 100 µM.

For the compound `C[C@@H]1CC[C@@H]2[C@@H]1[C@H](OC(=O)/C=C/c1ccccc1)[C@]1(C3CCCCC3)C[C@@H](OC(=O)CO)[C@@]2(C)O1`, the GI50 is 6.12 µM and the TGI was 19.9 µM.

As for `Cc1[nH]nc(C(F)(F)F)c1N=NN1CCOCC1`, the TGI worked out at 30.3 µM.

Regarding `Cc1ccccc1N1C(=O)C2C=CC(n3[nH]c(=O)n(Cc4ccccc4)c3=O)CC2C1=O` (centres undefined), the TGI is > 100 µM.

Take `O=C1/C(=C/c2ccc(Cl)cc2)CCC1CCN1CCOCC1` (centres undefined): the TGI was > 100 µM.

In the case of `N#CCCN(C(=O)Nc1ccccc1)[C@H]1CCCC[C@@H]1N(C(=O)Nc1ccccc1)c1ccccc1`, the TGI is > 100 µM.

For the compound `O=C1OCC2=C1C(c1cccc(Br)c1)c1cc3c(cc1N2CCO)CCC3` (centres undefined), the GI50 was 0.343 µM and the TGI was found to be 9.6 µM.

With `Clc1ccc2[nH]cc(-c3nnnn3-c3ccccc3)c2c1`, the GI50 is 12.5 µM and the TGI worked out at 59.2 µM.

For `CCCCCCOC(=O)/C=C/[C@]1(CO)C/C(=C/CC(C(C)C)C(C)C)C(=O)O1`, the TGI was 23.9 µM.

Regarding `COC(=O)/C=C(\C)CC(O)/C=C(\C)CCC=C(C)C` (centres undefined), the TGI was > 100 µM.

Consider `COc1cc2c3c(n(C)c(=O)c2cc1OC)-c1cc2c(cc1/C3=C\CN)OCO2`, for which the GI50 was 1.68 µM and the TGI was determined as 11.1 µM.

`CCOC1OC(=O)c2cc3ccc4c(c3c(-c3ccc5c(c3)OCO5)c21)OCO4` (centres undefined) yielded a TGI of 97.6 µM.

For the compound `COC(=O)C(Cc1nc2ccc(Cl)cc2[nH]c1=O)/C(=N\N)C(=O)Nc1cc(C)c(Cl)cc1S(=O)(=O)O` (centres undefined), the TGI was > 100 µM.

As to `CCCCNC(=S)Nc1nc(C(=O)NNC(=S)Nc2ccccc2)cs1`, the TGI was > 100 µM.

As for `CC1CCC(=O)C(C(=O)CC2CC(=O)N(C)C(=O)C2)C1` (centres undefined), the TGI was > 100 µM.

`COc1ccc2cc(/C=N/NC(=O)Nc3ccccc3)ccc2c1`: the TGI was > 100 µM.

Take `NC(=O)C12CC3CC(CC(F)(C3)C1)C2`: the TGI is > 100 µM.

As for `O=C(O)[C@@H]1CCS(=O)(=O)N1`, the TGI is > 100 µM.

As for `Clc1ccc(C2C3COc4ccccc4C3=NN2c2ccccc2)cc1` (centres undefined), the TGI was > 100 µM.

On to `O=C(c1ccccc1)c1cc2ccccc2o1`, for which the GI50 is > 100 µM and the TGI was > 100 µM.

Source of the values: PubChem BioAssay (NCI).
